Reference: PubChem BioAssay AID1347073 (National Center for Advancing Translational Sciences (NCATS), 2019)
Hit rate of the full screen: of about 45,000 compounds, about 200 (0.44%) were called active. Another 7% or so got no clear call; they are omitted. The call rests on the fitted dose curve; in most records, active means well fitted activation curve with a large enough effect; inconclusive means small, poorly fitted or top-dose-only effect; inactive means no such curve, though single readings can be large or run the other way. Some of the results follow.

Test: qHTS of TDP-43 Inhibitors: NCGC Sytravon Library Screen; further: nearly all actives have a fitted effect of over 55% in size; on growth rescue (activation): 0% is about no effect
Conditions: yeast TDP-43 toxicity rescue, BacTiter-Glo growth, 24 h; series mostly up to 46.1 µM; growth rescue (activation): at the top concentration
Procedure, shortened: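 TDP-43-expressing yeast, pregrown in raffinose, seeded at OD600 0.02 in galactose medium with compound for 24 hr at 30 deg C. Growth read by BacTiter-Glo luminescence, so rescue of toxicity appears as activation.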
Potency means the concentration at half of the fitted maximal effect.

Row | SMILES | Potency | growth rescue (activation)
1 | CCc1c(C)nc(SCC(=O)N2CCN(c3ccccc3OC)CC2)[nH]c1=O | inactive | –
2 | O=C(CCCOc1ccc(Cl)cc1Cl)Nc1ccccc1C(=O)O | – | inactive: 4.69%
3 | O=C(CCc1ccccc1)Nc1nn[nH]n1 | – | inactive: 11.4%
4 | CN1CCN(C(=O)CCc2ccc(S(=O)(=O)NC3CCCCC3)cc2)CC1 | – | inactive: 4.51%
5 | CCOCC(=O)Nc1ccccc1C(=O)N1CCOCC1 | – | inactive: 0.761%
6 | Cn1c(SCC(=O)Nc2cc(C(C)(C)C)nn2-c2ccccc2)nc2ccccc21 | – | inactive: 25.8%
7 | CC(=O)Nc1ccc2c(c1)C(=O)N(c1cccc(C)c1)C2=O | – | inactive: 29.9%
8 | COc1ccc(NC(=O)CN2C(=O)NC3(CCCC3)C2=O)cc1Cl | – | inactive: 7.7%
9 | Cc1cc2c(cc(C(=O)OC(C)C(=O)NCc3ccccc3)n2C)o1 (stereo not drawn) | – | inactive: 5.91%
10 | C=CCc1cccc(CNc2c(C)cc(C)cc2C)c1O | – | inactive: 1.53%
11 | O=C(/C=C/c1ccccc1)OCc1cncs1 | – | inactive: 8.67%
12 | Cc1ccc2c(=O)cc(C(=O)NCCc3ccc(S(N)(=O)=O)cc3)oc2c1C | – | inactive: 4.9%
13 | COc1ccc(C(C)(C)C)cc1NC(=O)c1ccc2c(c1)SC1=NS(=O)(=O)CCN12 | – | inactive: 1.28%
14 | C=CCNc1scc(-c2ccccc2)[n+]1CC=C | – | inactive: 8.08%
15 | COc1ccc(OC)c(C2=Nn3c(nnc3-c3ccncc3)SC2)c1 | – | inactive: 25.8%
16 | CCOc1ccc(OCC(O)CN2CCN(S(=O)(=O)c3cccc(C(F)(F)F)c3)CC2)cc1 (stereo not drawn) | – | inactive: 1.72%
17 | CCC1CCC(C(=O)NC(CCSC)C(=O)NCCN(CC(C)C)CC(C)C)CC1 (stereo not drawn) | – | inactive: -6.31%
18 | Cc1nonc1NC(=O)CSc1ccccn1 | – | inactive: -3.3%
19 | O=C(NC1CCCC1)C(c1ccncc1)N(C(=O)c1csnn1)c1cccc(Cl)c1 (stereo not drawn) | – | inactive: 7.01%
20 | CCN(CC)S(=O)(=O)c1ccc(N2CCCCC2)c(NC(=O)/C=C/c2ccc(OC)c(OC)c2)c1 | – | inactive: 28.6%
21 | CNC(=S)Nc1ccc([N+](=O)[O-])cc1C | – | inactive: 3.18%
22 | Cc1cc(NS(=O)(=O)c2ccc(NC(=O)CCc3ccccc3)cc2)no1 | – | inactive: -1.21%
23 | Cc1ccc2c(C(=O)CSc3ccccc3)c(C)[nH]c2c1 | – | inactive: 14.7%
24 | Cc1cccc(-c2nnc(SCC(=O)NC3CCCC3)o2)c1 | – | inactive: 4.04%
25 | Cc1ccc(/C=C(\NC(=O)c2ccccc2)C(=O)NC(Cc2ccccc2)C(=O)O)cc1 (stereo not drawn) | – | inactive: -5.54%
26 | Cc1nc2c(-c3ccc(Cl)cc3)c(C)[nH]n2c(=O)c1Cc1ccccc1 | – | inactive: 11.4%
27 | Nc1ccc(C(=O)CC(=O)Nc2ccc(Cl)cc2)cc1 | – | inactive: 25.5%

Row | SMILES | Potency | growth rescue (activation)
28 | Cc1ccc(CS(=O)(=O)c2ncn[nH]2)cc1 | – | inactive: -1.93%
29 | COc1ccc(NS(=O)(=O)c2cccc(NC(=O)c3cnccn3)c2)cc1Br | – | inactive: -0.396%
30 | CCCCOc1ccc(C(=O)OCC(=O)N2CCOCC2)cc1 | – | inactive: -21.3%
31 | C=CCNc1nc(N)c([N+](=O)[O-])c(NCc2ccccc2)n1 | – | inactive: 20.9%
32 | O=C(O)/C=C/c1cccc(OCc2ccccc2)c1 | – | inactive: -6.42%
33 | COc1ccc(Br)cc1/C=N/NC(=O)c1cccc(S(=O)(=O)N2CCOCC2)c1 | – | inactive: 0.922%
34 | CCN(CC)c1ccc(/C=N/NC(=O)c2ccoc2C)cc1 | – | inactive: 11.7%
35 | O=C(O)C1C(C(=O)O)C1(c1ccccc1)c1ccccc1 (stereo not drawn) | – | inactive: 14.3%
36 | CN(C(=O)COC(=O)c1ccc2ccccc2n1)c1ccccc1 | – | inactive: -5.71%
37 | CC1CC(C)CN(C(C)C(=O)Nc2cc(S(=O)(=O)N3CCCCC3)ccc2Cl)C1 (stereo not drawn) | – | inactive: -17.5%
38 | Cn1c(SCC(=O)N2c3ccccc3CCc3ccccc32)nnc1-c1cc2ccccc2cc1O | – | inactive: -11.2%
39 | N#Cc1c(NC(=O)c2cccc(S(=O)(=O)Nc3ccc(C(=O)O)cc3)c2)sc2c1CCCC2 | – | inactive: 6.91%
40 | COc1ccccc1NS(=O)(=O)c1cc(NC(=O)c2cc(F)c(F)c(F)c2F)ccc1N1CCOCC1 | – | inactive: 3.69%
41 | O=C(c1cncc(Br)c1)N1CCN(c2ccc([N+](=O)[O-])cc2)CC1 | – | inactive: 3.44%
42 | Cc1ccc(OCC(=O)N(C)Cc2ccccc2)c([N+](=O)[O-])n1 | – | inactive: 9.8%
43 | CCOC(=O)C(C(=O)Nc1nccs1)C1CCCCC1 (stereo not drawn) | – | inactive: -4.86%
44 | CCOC(=O)C1CCCN(C(=O)c2ccc3c(c2)N(Cc2ccccc2)C(=O)c2ccccc2S3(=O)=O)C1 (stereo not drawn) | – | inactive: 25.5%
45 | COc1ccc(C2CC(c3cccs3)=NN2C(=O)c2ccc(Br)o2)cc1 (stereo not drawn) | – | inactive: 24.1%
46 | O=C(CSc1ccccn1)Nc1nc2c(ccc3ccccc32)s1 | – | inactive: 23.5%
47 | NC(=S)N/N=C/c1ccc(C23CC4CC(CC(C4)C2)C3)cc1 | active: 7.94 µM | –
48 | O=C(Cn1cnc2c(cnn2-c2ccccc2)c1=O)Nc1cc(S(=O)(=O)N2CCOCC2)ccc1Cl | – | inactive: -13.6%
49 | Cc1ccccc1NC(=O)c1ccc(CN2CCC(Cc3ccccc3)CC2)cc1 | – | inactive: -12.2%
50 | CC(C)Cn1c(N)c(C(=O)COC(=O)C2CC(=O)N(Cc3ccccc3Cl)C2)c(=O)n(C)c1=O (stereo not drawn) | – | inactive: 7.06%
51 | Cc1ccccc1NC(=O)NC1(C(=O)N2CCC(O)CC2)CCCCC1 | – | inactive: 3.83%
52 | COc1ccc(Nc2nc(N(C)c3ccccc3)nc(N)c2[N+](=O)[O-])cc1 | – | inactive: 14.6%
53 | Cc1cc(=O)[nH]c(CN2CCOCC2)n1 | – | inactive: -25.9%
